# From PubChem BioAssay AID624296 (National Center for Advancing Translational Sciences (NCATS), 2012)
# Where “and” joins values, the source holds several entries; their conditions need not be identical. Equal values may be shown once. The campaign covered roughly 350,000 compounds. About 9,900 (2.8%) were called active. This list was built around the results that the source calls inconclusive (neither active nor inactive); the mix of calls is not that of the screen. Calls come from the whole dose curve; as a rule, active = well fitted activation curve with a large enough effect; inconclusive = small, poorly fitted or top-dose-only effect; inactive = no such curve, though single readings can be large or run the other way. Potencies beside an inconclusive call are fits to weak or partial responses and may not hold up.
# Assay: A quantitative high throughput screen for small molecules that induce DNA re-replication in MCF 10a normal breast cells. For activity, positive = re-replication: % of control where 0% means no effect. Note: nearly all actives have a fitted effect of over 50% in size.
# Details: MCF 10A DNA re-replication, Hoechst nuclear intensity, 48 h; activity, positive = re-replication: at 46.1 µM (top of the series)
# Potency is the fitted concentration of half-maximal effect; tags give direction and shape of the fitted curve.
Compound,Potency,"activity, positive = re-replication"
CS(=O)(=O)N1CCN(C(=O)CCc2ccccc2)CC1,"inconclusive: 29.1 µM [activator, single point]",
CCCc1cc(=O)[nH]c(SCC(=O)Nc2cc(S(=O)(=O)N(CC)c3ccccc3)ccc2Cl)n1,"inconclusive: 18.4 µM [activator, single point]",
CCOc1ccc(/C=C2\SC(=S)N(CCCC(=O)NCCCN3CCOCC3)C2=O)cc1,"inconclusive: 23.1 µM [activator, single point]",
COCCn1c(=NC(=O)CSCC(=O)N2CCOCC2)sc2cc(C)ccc21,"inconclusive: 29.1 µM [activator, partial curve, poor fit]",
COc1ccc(-c2nn(C)c(=O)c3ccccc23)cc1CNC(=O)C1CCCCC1,"inconclusive: 16.4 µM [activator, partial curve, poor fit]",
O=C(CC1C[C@H](C(=O)N2CCOCC2)[C@@]2(CCC3CCCC3)c3[nH]c4ccccc4c3CCN2C1=O)NCc1ccco1 (stereo partly drawn),,inactive: -0.476%
Nc1cc2c(cc1N)-c1ccccc1C2,"inconclusive: 16.4 µM [activator, single point]",
Cc1nn(C)c(C)c1CN(C)C(=O)c1nn2c(c1Br)NC(c1cccs1)CC2C(F)(F)F (stereo not drawn),,inactive: 0.663%
Cc1oc2c(cc(NS(=O)(=O)c3cccs3)c3ccccc32)c1C(=O)OC(C)C,active: 13 µM,
CCOC(=O)C(=Cc1ccc(Br)cc1)C(=O)OCC,active: 1.64 µM,
CCOC(=O)C1=C(C)NC(SCC(=O)OC)=C(C#N)C1c1ccc(C(=O)OC)cc1 (stereo not drawn),"inconclusive: 29.1 µM [activator, single point] and inconclusive: 20.6 µM [activator, partial curve, poor fit]",
Cc1ccc(OCC(=O)Nc2ccccc2Sc2ccc(Cl)cc2)c([N+](=O)[O-])n1,"inconclusive: 29.1 µM [activator, partial curve, poor fit]",
CC(C)(C)OC(=O)N/N=C\c1ccc([N+](=O)[O-])s1,,inactive: -26.4%
Cc1c(Cc2ccccc2)c(=O)oc2c(O)c(O)ccc12,active: 20.6 µM,
CCOc1ccc(N(CC(=O)N/N=C/c2ccccn2)S(=O)(=O)c2ccc(Cl)cc2)cc1,,inactive: 1.36%
Cc1cc(Cl)ccc1NNC(=O)c1c(C)noc1C,"inconclusive: 2.59 µM [activator, partial curve, poor fit]",
Nc1nc(Nc2ccc(Cl)cc2Cl)nc(C(F)(F)F)n1,"inconclusive: 18.4 µM [activator, partial curve, poor fit]",
COc1ccc(C)cc1S(=O)(=O)N(CC(=O)Nc1cccc([N+](=O)[O-])c1)c1ccccc1,,inactive: -3.27%
COc1ccccc1/C=N/Nc1nncc2ccccc12,,inactive: -2.41%
COc1ccccc1OCC(=O)Nc1cc(Cl)ccc1N1CCCCC1,"inconclusive: 18.4 µM [activator, single point]",
Cc1ccccc1CN1CCN(S(=O)(=O)c2cccs2)CC1,"inconclusive: 23.1 µM [activator, partial curve, poor fit]",
COc1cccc(OCC(=O)NNC(=O)c2ccc3ccccc3c2)c1,,inactive: -3.68%

Compound,Potency,"activity, positive = re-replication"
CSCCC(NC(=O)OCc1ccccc1)C(=O)O (stereo not drawn),,inactive: -5.29%
C/C(=N\NC(=O)c1cc(C)nc2ccccc12)c1ccncc1,active: 11.6 µM,
Cc1cccc(C)c1-n1c(C)cc(/C=N\Nc2ccc([N+](=O)[O-])cn2)c1C,active: 5.17 µM,
CCC1CCCCN1S(=O)(=O)c1ccc(C(=O)Nc2nnc(-c3ccccc3Cl)o2)cc1 (stereo not drawn),"inconclusive: 3.16 µM [activator, full curve, poor fit]",
CCC(=O)N1CCN(c2ccc(NC(=O)c3ccc4c(c3)OCCO4)cc2)CC1,,inactive: -0.113%
CCOC(=O)c1sc(NC(=O)/C=C/c2cnn(CC)c2C)c(C(=O)OCC)c1C,"inconclusive: 20.6 µM [activator, partial curve, poor fit]",
COc1ccc(NC(=O)c2ccco2)cc1NC(=O)c1ccccc1,"inconclusive: 0.103 µM [activator, full curve, poor fit]",
Cc1cccc(C)c1NC(=O)CNC(=O)Cc1c[nH]c2ccccc12,,inactive: -1.54%
Oc1ccc(C(=Nc2ccccc2)c2ccccc2)c(O)c1,"inconclusive: 29.1 µM [activator, single point]",
CCOC(=O)c1[nH]cnc1C(=O)N1CCC(C)CC1,"inconclusive: 5.8 µM [activator, single point]",
CCCCOC(=O)C1=C(N)N2C(=O)C(C)SC2=C(C(=O)OCC)C1c1ccc(O)c(OC)c1 (stereo not drawn),"inconclusive: 4.11 µM [activator, single point]",
COc1ccc(-c2sc(C(=O)c3ccc(Cl)cc3Cl)cc2CC(=O)O)cc1,active: 11.6 µM,
CCCCn1c(N)c(N(CCC(C)C)C(=O)c2cc(-c3ccco3)nc3ccccc23)c(=O)[nH]c1=O,"inconclusive: 4.61 µM [activator, single point]",
C=CC[C@@H](Cc1ccc(F)cc1)C(=O)OC[C@@H]1CCCN1C(=O)[C@@H](CC=C)CC(=O)N[C@H](CO)Cc1ccccc1,"inconclusive: 29.1 µM [activator, single point]",
Clc1cccc(Cl)c1C1Nc2cccc3cccc(c23)N1,active: 18.4 µM,
COc1cc(OC)cc(C(=O)Nc2cccc(C(C)=O)c2)c1,,inactive: -0.176%
N#CCNC(=O)C1CC(=O)N(CCc2ccc(F)cc2)C1 (stereo not drawn),"inconclusive: 6.51 µM [activator, single point]",
COc1cc(NC(=O)C2CCN(S(=O)(=O)c3ccc(Cl)cc3)CC2)ccc1-n1cnnn1,"inconclusive: 18.4 µM [activator, single point]",
COc1ccc(CCNS(=O)(=O)c2cccc(C)c2)cc1OC,,inactive: 2.36%
C#CCNCCS(=O)(=O)N(Cc1ccc(Br)cc1)[C@@H](CC(C)C)C(=O)O,"inconclusive: 32.6 µM [activator, single point]",
O=[N+]([O-])c1c(NCCCO)cc(Sc2nc3ccccc3s2)c2nonc12,"inconclusive: 20.6 µM [activator, single point]",
